This is a noisy data set.
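Also: [psi-pin-] Saccharomyces cerevisiae expressing SupN fusions, induced by 100 µM Cu2SO4, selected 7 d at 30 °C without adenine and uracil, scored by deep sequencing of output versus input.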

The nature of the first data set: amyloid nucleation score relative to library mode (yeast Sup35 reporter selection) (log enrichment difference); higher = more amyloid nucleation; sequences are the first 22 residues of the Bri2 peptide extended by up to 12 random residues. As to conditions: random library (experiment): 1;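 active = nucleation score significantly above 0 at FDR 0.05; inactive = not significantly above 0 or absent from output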. The procedure: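 Random C-terminal extensions of the 22-aa Bri2 peptide by 12 NNK codons; premature stops give shorter extensions. Peptides were fused to the Sup35 nucleation domain in S. cerevisiae [psi-pin-] and selected on -ADE-URA plates for 7 d at 30 °C. The nucleation score is log(output/input), centred to the mode of each of 3 independent libraries (1 input, 3 technical output replicates), with duplicates merged. Sequences absent from the output ('random_non_nuc') were imputed with the library mode value, so they are given as censored (<). Nucleators are scores significantly >0 at FDR 0.05.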
On to EASNCFAIRHFENKFAVETLICASATSMQIMRRW, for which the amyloid nucleation score result was “inactive”.

Sequence EASNCFAIRHFENKFAVETLICASAVRNADLLVW returned an amyloid nucleation score of 4.74.

Turning to EASNCFAIRHFENKFAVETLICASAVWSFWLLVN, the amyloid nucleation score entry is “inactive”.

For EASNCFAIRHFENKFAVETLICASCSQVVLCLLV, the amyloid nucleation score is 3.15.

For EASNCFAIRHFENKFAVETLICASEAASQERGVY, the amyloid nucleation score entry was “inactive”.

Regarding EASNCFAIRHFENKFAVETLICASETADDGMMMR, the amyloid nucleation score entry was “inactive”.

Regarding EASNCFAIRHFENKFAVETLICASFANIKPGLLG, the amyloid nucleation score result was “inactive”.

EASNCFAIRHFENKFAVETLICASGAVLPGALRA came in with an amyloid nucleation score of 5.02.

Take EASNCFAIRHFENKFAVETLICASGMALSGTARR: the amyloid nucleation score result is “inactive”.

For EASNCFAIRHFENKFAVETLICASGQGVSSSAVR, the amyloid nucleation score entry is “inactive”.

On to EASNCFAIRHFENKFAVETLICASGQSGATGRGW, for which the amyloid nucleation score entry is “inactive”.

EASNCFAIRHFENKFAVETLICASHVSLVRGTLE: the amyloid nucleation score is 5.51.

Consider EASNCFAIRHFENKFAVETLICASKEQGRDAV, for which the amyloid nucleation score turned out to be 0.655.

For EASNCFAIRHFENKFAVETLICASLELRSGAASA, the amyloid nucleation score result was “inactive”.

Take EASNCFAIRHFENKFAVETLICASLGNTSFGTP: the amyloid nucleation score was 1.53.

EASNCFAIRHFENKFAVETLICASLWSGSACLSS returned an amyloid nucleation score of 0.451.

As for EASNCFAIRHFENKFAVETLICASM, the amyloid nucleation score entry is “inactive”.

EASNCFAIRHFENKFAVETLICASMPSSPKDRES gave an amyloid nucleation score of 0.376.

On to EASNCFAIRHFENKFAVETLICASMSVCCASGHV, for which the amyloid nucleation score was 6.28.

For the sequence EASNCFAIRHFENKFAVETLICASMWQEWRDVRG, the amyloid nucleation score was -0.0385.

As for EASNCFAIRHFENKFAVETLICASNRNYSSVVIA, the amyloid nucleation score result is “inactive”.

As for EASNCFAIRHFENKFAVETLICASPAGQLGGTDR, the amyloid nucleation score result is “inactive”.

For the sequence EASNCFAIRHFENKFAVETLICASPCHDSGDGKK, the amyloid nucleation score entry is “inactive”.

As to EASNCFAIRHFENKFAVETLICASPEELGRSIKR, the amyloid nucleation score was 0.142.

Take EASNCFAIRHFENKFAVETLICASPQLQRSNQG: the amyloid nucleation score result was “inactive”.

In the case of EASNCFAIRHFENKFAVETLICASPSAGPFWGSK, the amyloid nucleation score is 1.25.

As for EASNCFAIRHFENKFAVETLICASRAGESRVAER, the amyloid nucleation score is -0.717.

For the sequence EASNCFAIRHFENKFAVETLICASRLSLPLLGLG, the amyloid nucleation score entry was “inactive”.

As to EASNCFAIRHFENKFAVETLICASRMVESNRCPP, the amyloid nucleation score worked out at 1.7.

Take EASNCFAIRHFENKFAVETLICASSLGLRLPFMS: the amyloid nucleation score is -0.0385.

On to EASNCFAIRHFENKFAVETLICASSRFV, for which the amyloid nucleation score was -0.265.

As for EASNCFAIRHFENKFAVETLICASSTMIVFGMDR, the amyloid nucleation score is 4.08.

For EASNCFAIRHFENKFAVETLICAST, the amyloid nucleation score is -0.029.

In the case of EASNCFAIRHFENKFAVETLICASTCMYDTQLI, the amyloid nucleation score entry is “inactive”.

In the case of EASNCFAIRHFENKFAVETLICASTMKGCRRDFT, the amyloid nucleation score is -0.0194.

Turning to EASNCFAIRHFENKFAVETLICASVCRVSSARRW, the amyloid nucleation score result is “inactive”.

The sequence EASNCFAIRHFENKFAVETLICASVMVQECNRRY yielded an amyloid nucleation score of 0.466.

Take EASNCFAIRHFENKFAVETLICASVQYCRRKMTL: the amyloid nucleation score entry was “inactive”.

As for EASNCFAIRHFENKFAVETLICASVSCAWGECAR, the amyloid nucleation score stood at 6.17.

The same data set, now with this note: random library (experiment): 2.
With EASNCFAIRHFENKFAVETLICASEISCQLEFCS, the amyloid nucleation score entry was “inactive”.

Take EASNCFAIRHFENKFAVETLICASFNG: the amyloid nucleation score worked out at 4.3.

On to EASNCFAIRHFENKFAVETLICASGIWPFIVRQW, for which the amyloid nucleation score result is “inactive”.

EASNCFAIRHFENKFAVETLICASGWMLDDWVIR came in with an amyloid nucleation score of 3.67.

Turning to EASNCFAIRHFENKFAVETLICASICFGFRGFHT, the amyloid nucleation score came out at 1.74.

In turn, EASNCFAIRHFENKFAVETLICASIGTSWFMRRA had an amyloid nucleation score of 5.21.

On to EASNCFAIRHFENKFAVETLICASKCDSFIRLVA, for which the amyloid nucleation score result was “inactive”.

On to EASNCFAIRHFENKFAVETLICASLGPKPQYVWR, for which the amyloid nucleation score was 4.52.

On to EASNCFAIRHFENKFAVETLICASLNPDLRFHKC, for which the amyloid nucleation score result is “inactive”.

As to EASNCFAIRHFENKFAVETLICASLVGVT, the amyloid nucleation score result was “inactive”.

EASNCFAIRHFENKFAVETLICASSGRQFWGSAG: the amyloid nucleation score turned out to be 2.9.

EASNCFAIRHFENKFAVETLICASVFMFNSSCGP: the amyloid nucleation score was 8.57.

With EASNCFAIRHFENKFAVETLICASVLFHEYAFDS, the amyloid nucleation score is 3.18.

With EASNCFAIRHFENKFAVETLICASVNESYYGTED, the amyloid nucleation score result is “inactive”.

Sequence EASNCFAIRHFENKFAVETLICASVVVTYSGSTS showed an amyloid nucleation score of 5.1.

The same data set, now with this note: random library (experiment): 3.
Consider EASNCFAIRHFENKFAVETLICASCMRRSVMLWR, for which the amyloid nucleation score entry was “inactive”.

Consider EASNCFAIRHFENKFAVETLICASCTMRKMSVLV, for which the amyloid nucleation score result was “inactive”.

With EASNCFAIRHFENKFAVETLICASCVYLSLAGAD, the amyloid nucleation score is 8.74.

As to EASNCFAIRHFENKFAVETLICASDMYWRDLRLL, the amyloid nucleation score was determined as 5.41.

Consider EASNCFAIRHFENKFAVETLICASERKSLWCFPG, for which the amyloid nucleation score is 1.96.

On to EASNCFAIRHFENKFAVETLICASEYSSY, for which the amyloid nucleation score result was “inactive”.

EASNCFAIRHFENKFAVETLICASFEGQNARWGR displayed an amyloid nucleation score of 0.0944.

The sequence EASNCFAIRHFENKFAVETLICASGRIIQSGG came in with an amyloid nucleation score of 0.315.

On to EASNCFAIRHFENKFAVETLICASKYRKVREY, for which the amyloid nucleation score entry was “inactive”.

For the sequence EASNCFAIRHFENKFAVETLICASLALKVTGMSR, the amyloid nucleation score result was “inactive”.

On to EASNCFAIRHFENKFAVETLICASLSNRMSPGVV, for which the amyloid nucleation score entry is “inactive”.

With EASNCFAIRHFENKFAVETLICASLWRDAWQRTD, the amyloid nucleation score entry was “inactive”.

As to EASNCFAIRHFENKFAVETLICASPPGAAKADSR, the amyloid nucleation score result was “inactive”.

As for EASNCFAIRHFENKFAVETLICASQFRN, the amyloid nucleation score result was “inactive”.

For EASNCFAIRHFENKFAVETLICASQPMVDEVGVE, the amyloid nucleation score result was “inactive”.

For EASNCFAIRHFENKFAVETLICASR, the amyloid nucleation score entry is “inactive”.

As for EASNCFAIRHFENKFAVETLICASRSRGEIARAG, the amyloid nucleation score result was “inactive”.

Take EASNCFAIRHFENKFAVETLICASRTLVWRVLGG: the amyloid nucleation score result was “inactive”.

As to EASNCFAIRHFENKFAVETLICASTCQFRHRWWT, the amyloid nucleation score entry is “inactive”.

In the case of EASNCFAIRHFENKFAVETLICASVIVISVGAVV, the amyloid nucleation score entry was “inactive”.
